# Measured values published in the supplement of paper PMC3334620.
# Whole data set: some 33,000 sequences, median “E-score (-0.5 to 0.5)” near -0.053, cut for the highest 2% near 0.37. Some of the results follow.
# Molecular target: Hap1 (UniProt P0CE41)
# Experiment: PBM E-score (8-mer binding enrichment) (E-score (-0.5 to 0.5)); higher = stronger / more preferred TF binding; most listed sequences are background and not binding sites
# Details: protein concentration: 200 nM; construct: GST-DNA-binding domain
# Method in brief: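 GST-tagged yeast TFs (full-length or DNA-binding domain) were made by PURExpress in vitro transcription/translation and applied at about 100-200 nM to universal all-10-mer Agilent arrays. The arrays were made double-stranded by primer extension, on fresh or once-stripped slides. Bound protein was detected with fluorescent anti-GST, and scans were normalised with masliner. Each ungapped eight-base word, pooled with its reverse complement, received an E-score (modified Wilcoxon-Mann-Whitney statistic) from the Universal PBM Analysis Suite.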
# Sequence of UniProt P0CE41 (P0CE41 whole entry): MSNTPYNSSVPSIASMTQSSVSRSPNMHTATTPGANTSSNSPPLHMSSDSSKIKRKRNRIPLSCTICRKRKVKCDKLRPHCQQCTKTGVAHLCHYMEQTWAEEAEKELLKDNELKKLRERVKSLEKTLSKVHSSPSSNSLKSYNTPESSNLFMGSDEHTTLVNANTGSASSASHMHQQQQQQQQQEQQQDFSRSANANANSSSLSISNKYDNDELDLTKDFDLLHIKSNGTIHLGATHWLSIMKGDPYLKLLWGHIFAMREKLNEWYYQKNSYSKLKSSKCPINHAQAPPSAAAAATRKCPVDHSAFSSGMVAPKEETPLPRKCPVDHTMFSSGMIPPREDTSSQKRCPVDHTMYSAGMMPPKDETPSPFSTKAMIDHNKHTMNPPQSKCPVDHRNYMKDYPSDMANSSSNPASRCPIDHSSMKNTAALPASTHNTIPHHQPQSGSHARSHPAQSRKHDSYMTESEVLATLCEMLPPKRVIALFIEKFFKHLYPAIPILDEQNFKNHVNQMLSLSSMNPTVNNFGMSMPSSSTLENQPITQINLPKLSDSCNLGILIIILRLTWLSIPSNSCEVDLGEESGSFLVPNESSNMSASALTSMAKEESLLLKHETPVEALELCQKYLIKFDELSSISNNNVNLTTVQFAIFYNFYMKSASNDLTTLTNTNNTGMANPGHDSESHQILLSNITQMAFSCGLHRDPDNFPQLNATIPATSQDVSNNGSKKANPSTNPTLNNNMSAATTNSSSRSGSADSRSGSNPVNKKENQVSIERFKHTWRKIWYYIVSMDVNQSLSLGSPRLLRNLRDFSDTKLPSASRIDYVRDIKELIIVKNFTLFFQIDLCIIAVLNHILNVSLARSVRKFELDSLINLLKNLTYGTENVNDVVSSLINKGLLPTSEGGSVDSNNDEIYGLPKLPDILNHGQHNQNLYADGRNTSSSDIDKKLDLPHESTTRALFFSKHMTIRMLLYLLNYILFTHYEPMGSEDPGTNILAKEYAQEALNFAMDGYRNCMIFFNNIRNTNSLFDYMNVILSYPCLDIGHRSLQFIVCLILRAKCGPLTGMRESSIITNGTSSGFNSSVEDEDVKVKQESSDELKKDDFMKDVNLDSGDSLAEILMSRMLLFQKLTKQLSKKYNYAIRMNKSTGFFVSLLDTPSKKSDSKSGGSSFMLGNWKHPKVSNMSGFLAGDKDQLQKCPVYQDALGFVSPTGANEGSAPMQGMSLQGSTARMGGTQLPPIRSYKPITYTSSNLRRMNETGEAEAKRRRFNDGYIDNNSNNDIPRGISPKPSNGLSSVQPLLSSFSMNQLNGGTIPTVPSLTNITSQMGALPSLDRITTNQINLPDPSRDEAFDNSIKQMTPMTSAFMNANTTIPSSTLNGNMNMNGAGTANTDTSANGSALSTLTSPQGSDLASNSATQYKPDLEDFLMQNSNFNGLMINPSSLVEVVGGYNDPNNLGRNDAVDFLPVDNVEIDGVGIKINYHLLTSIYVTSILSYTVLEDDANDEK
row,Sequence,PBM E-score
1,TCGGGAGA,0.117
2,CTGTCTTA,-0.0346
3,AGACACGG,0.0548
4,CGACTAGC,0.0247
5,ATGCCCCA,-0.0732
6,CAAGGAGG,-0.169
7,CTACCCCC,0.192
8,GAGCCGCA,-0.0121
9,CCGACCGA,0.422
10,GGACTATA,0.172
11,AGGTACCG,0.116
12,CGAATTGC,0.0559
13,TCGCGGAA,0.222
14,GAATCTGC,0.182
15,GGACTGCC,-0.0273
16,ATTAGCAC,-0.0482
17,AAATCCAT,0.132
18,AGCTACAG,-0.123
19,ATGTGAAT,-0.0535
20,AGTTTACA,-0.0535
21,AAAGAAGC,-0.0509
22,CCTCCTTC,-0.0415
23,CCAAGCGC,0.105
24,ACAGCGCA,-0.171
25,ATCCGGCG,0.355

row,Sequence,PBM E-score
1,ATACGGAT,0.204
2,AAGTAGCC,0.115
3,GACGTGGA,-0.126
4,AGAGAGAC,-0.258
5,GCGAATTA,0.0259
6,GAGCTTGC,-0.171
7,ACAATTGG,-0.212
8,AACATTTC,-0.235
9,CCGACTCC,0.27
10,CTTGCGTC,-0.14
11,TAAAAGGA,-0.0643
12,GGTAATCA,0.022
13,TCGTCAGA,-0.113
14,AGGATAGG,-0.126
15,GAGTTATA,-0.0538
16,GGCGAGGA,0.0118
17,CCCTTTTA,-0.177
18,GCCATACC,0.0518
19,CGGACTAG,0.305
20,CGTTAGAG,0.105
21,ATGTGGTA,-0.0905
22,GCGAGAGA,-0.108
23,ACTGATCT,-0.125
24,ACCTCCAC,-0.00483
25,GAGGACAC,0.0755

row,Sequence,PBM E-score
1,GCTATCCA,-0.0628
2,ACATGCGA,-0.118
3,GCGGCAAC,0.00981
4,ATTCTTAA,-0.00994
5,CCGGGAAC,0.322
6,CAGCACTC,-0.158
7,ATCGGGTC,0.343
8,GATTTTGC,-0.0335
9,GCGACACC,0.0843
10,ACCCCTTC,-0.236
11,CATCGCCG,0.293
12,CCACCGGC,0.233
13,CGTCTTTA,0.0516
14,CCCTTGCC,-0.0918
15,CTCGTAAC,-0.0461
16,GTAAGAAC,0.03
17,AATTTCAA,-0.137
18,ACAAACCT,-0.181
19,CCATCAGG,-0.154
20,ATATAAGG,0.141
21,TATCACGA,-0.152
22,CGGGCACG,0.296
23,AACCTTCT,0.0295
24,GTAATATA,-0.0119
25,ACGTCGCA,-0.191

row,Sequence,PBM E-score
1,ACTGGGCA,-0.125
2,GTATGCTA,0.0377
3,CCGCTAGG,0.185
4,CACCACAA,-0.117
5,GTGTCCCA,0.0086
6,CAGCGAAC,-0.179
7,GGAGGCAA,0.0882
8,AGGTCGAG,-0.325
9,GCGCAATA,0.0628
10,ATCAGGGG,-0.217
11,AGAAGGGC,-0.121
12,GGCACATA,-0.121
13,CGTTGCCA,0.0478
14,GGGCTGAA,-0.0489
15,ATCGATTC,-0.0601
16,AGAGATAA,0.00783
17,CACACACG,-0.0462
18,ATCGGCTG,0.3
19,CGTGGACC,0.129
20,AGTTTTTC,0.0886
21,AACGCAGA,-0.0566
22,GCAACCAA,-0.187
23,CTTCCCAC,-0.149
24,GGAACACC,0.165
25,AGAACTAA,0.076

row,Sequence,PBM E-score
1,ATCGACGG,0.163
2,GACCCTCC,0.0636
3,TCAACGCA,-0.178
4,GACGGTGA,-0.0624
5,CGTAGAGC,-0.136
6,CCATTCGA,-0.0986
7,CATAATTA,-0.0485
8,CTCCGAGC,0.386
9,AAGATGTA,-0.226
10,ACGGGTTC,0.0166
11,ACCCTAAT,-0.35
12,GGCTCTAC,0.0591
13,TAAGACAA,0.0754
14,CCGCCGCA,0.135
15,CTCTCATC,-0.159
16,CCCGGATA,0.325
17,CGTCCACA,-0.0864
18,CGGATCAA,0.35
19,CGGACACC,0.218
20,AGCGGAGC,0.223
21,GGGCGTTA,0.147
22,GTCCGACA,0.38
23,TAGTCTGA,-0.183
24,ATGATTTA,-0.1
25,ACACCGAC,0.268

row,Sequence,PBM E-score
1,GGCAAATA,0.2
2,CATCGGGA,0.223
3,CAGGAGGG,-0.258
4,GTCCCATA,-0.186
5,GAATTAGC,0.099
6,GAGATCAC,-0.0988
7,AGAAGTAC,-0.253
8,AAAGTAAT,0.0112
9,AACACACA,-0.289
10,TGCGCAAA,0.0697
11,TCACAGCA,-0.165
12,GTCGTGAA,-0.157
13,TGCCAGCA,-0.12
14,GCGGTACC,0.161
15,CTTGTTCA,-0.121
16,ATAACGAA,0.0537
17,CCGTACGG,0.0145
18,AAAGTATA,-0.0298
19,ACAGTGGG,-0.082
20,ACCTCCGC,0.248
21,CAGACCAA,-0.137
22,CAAGGTTA,-0.0309
23,AATAATTG,-0.0996
24,CAAGCACA,-0.332
25,AGCGACCG,0.0527

row,Sequence,PBM E-score
1,AACGGCGG,0.294
2,CAACAGGG,-0.0727
3,TAAGAATA,-0.141
4,ATGCGTCG,-0.0779
5,AGAATAAA,-0.0166
6,ACAGAGTG,-0.218
7,AATGATAT,-0.0455
8,GTGCCTAA,-0.21
9,GACGGCTA,-0.0322
10,AGGGACAT,-0.0657
11,GCAATAGC,0.0973
12,CGCAATGA,-0.103
13,ATCAGTAA,-0.0379
14,GGTCGACC,0.348
15,CTTCTTCA,-0.292
16,CATGCCCG,0.242
17,GCAAAATA,-0.0583
18,AACGGCCC,0.15
19,CTAATGAC,-0.301
20,CCAGAAAA,-0.159
21,CCGTGGTA,-0.0122
22,CATCATAA,-0.067
